Laboratory results published in PubChem BioAssay AID504332 (National Center for Advancing Translational Sciences (NCATS), 2011).
“And” between values parts separate entries of the source, which are not always exact repeats. Identical values can stand only once. Among all 350,000 compounds or so, about 31,000 (8.9%) were called active. Inconclusive means that the source gave no clear call. Such entries were picked first, then a sample of the others. Calls come from the whole dose curve; as a rule, active = well fitted inhibition curve with a large enough effect; inconclusive = small, poorly fitted or top-dose-only effect; inactive = no such curve, though single readings can be large or run the other way. Potencies of inconclusive entries are doubtful fits and often do not repeat.

target: Histone-lysine N-methyltransferase EHMT2 (Homo sapiens) (UniProt Q96KQ7); experiment: qHTS Assay for Inhibitors of Histone Lysine Methyltransferase G9a; details: G9a H3K9 monomethylation, AlphaScreen, 2 h; activity, negative = inhibition: at 59 µM (top of the series) unless noted; note: nearly all actives have a fitted effect of over 75% in size
Chain of UniProt Q96KQ7 (Q96KQ7 whole entry, looked up): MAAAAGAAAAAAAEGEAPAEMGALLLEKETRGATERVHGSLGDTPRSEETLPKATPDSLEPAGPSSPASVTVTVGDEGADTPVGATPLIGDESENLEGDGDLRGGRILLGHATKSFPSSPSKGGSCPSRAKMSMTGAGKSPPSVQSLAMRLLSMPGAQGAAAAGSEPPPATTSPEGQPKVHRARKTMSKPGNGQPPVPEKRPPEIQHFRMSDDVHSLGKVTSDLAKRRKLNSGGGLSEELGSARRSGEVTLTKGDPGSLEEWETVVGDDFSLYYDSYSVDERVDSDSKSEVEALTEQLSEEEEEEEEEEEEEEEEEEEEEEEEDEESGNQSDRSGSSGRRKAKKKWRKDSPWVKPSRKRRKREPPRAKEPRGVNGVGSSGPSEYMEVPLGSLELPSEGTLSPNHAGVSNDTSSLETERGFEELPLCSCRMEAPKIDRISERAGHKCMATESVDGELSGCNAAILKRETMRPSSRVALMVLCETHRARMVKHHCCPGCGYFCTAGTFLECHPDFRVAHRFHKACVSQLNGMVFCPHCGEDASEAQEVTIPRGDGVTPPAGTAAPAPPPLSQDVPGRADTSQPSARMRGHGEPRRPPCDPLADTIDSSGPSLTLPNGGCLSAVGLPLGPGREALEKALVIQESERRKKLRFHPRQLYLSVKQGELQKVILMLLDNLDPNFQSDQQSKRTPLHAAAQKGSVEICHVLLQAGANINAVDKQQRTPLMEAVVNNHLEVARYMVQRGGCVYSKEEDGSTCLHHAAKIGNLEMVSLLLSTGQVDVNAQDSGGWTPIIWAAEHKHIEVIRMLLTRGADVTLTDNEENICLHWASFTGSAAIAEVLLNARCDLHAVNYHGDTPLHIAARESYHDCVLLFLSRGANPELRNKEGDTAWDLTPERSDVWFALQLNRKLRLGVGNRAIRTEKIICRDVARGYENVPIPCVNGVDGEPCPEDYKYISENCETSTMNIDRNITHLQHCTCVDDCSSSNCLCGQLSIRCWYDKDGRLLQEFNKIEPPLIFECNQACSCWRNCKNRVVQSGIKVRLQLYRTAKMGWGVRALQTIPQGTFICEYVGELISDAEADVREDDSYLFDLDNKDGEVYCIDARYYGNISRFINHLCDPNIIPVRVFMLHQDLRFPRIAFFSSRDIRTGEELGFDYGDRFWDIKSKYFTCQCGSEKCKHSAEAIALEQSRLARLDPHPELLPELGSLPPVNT
Method in brief: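 Step 1: enzyme (final 20 nM) with compound, 15 min RT. Step 2: substrate peptide 500 nM and SAM 20 uM, 2 h RT. Step 3: anti-H3K9me1 antibody and AlphaScreen beads, 10 min, then plate read.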
% is set by controls: 0 for no effect and ±100 for the full control effect; potency is the fitted concentration of half-maximal effect; tags give direction and shape of the fitted curve.

Row | Structure (SMILES) | Potency | activity, negative = inhibition
1 | CCOc1cc(CNCc2ccccn2)cc(Cl)c1OC | inconclusive: 20 µM [inhibitor, full curve, poor fit] | 
2 | O=C(NCCc1ccc(F)cc1)C(=O)NCC(c1cccs1)S(=O)(=O)c1ccc(F)cc1 (stereo not given) |  | inactive: 9.74%
3 | COc1ccc(OC)c(NCc2cccn2-c2nnc(N3CCCCC3)s2)c1 | active: 8.91 µM | 
4 | CCOc1cc2c(cc1OCC)C(c1ccc(OC)cc1)N(c1ccccc1)C(=O)C2 (stereo not given) | inconclusive: 15.8 µM [inhibitor, partial curve, poor fit] | 
5 | C(/C=C/c1ccccc1)=N/N1CCN(c2ccccc2)CC1 | inconclusive: 39.8 µM [inhibitor, partial curve, poor fit] | 
6 | Cc1c(Cc2ccccc2)sc(N)c1C(N)=O | active: 2 µM | 
7 | NS(=O)(=O)c1ccc(NC(=O)CN2CCCN(S(=O)(=O)c3ccc(F)cc3)CC2)cc1 |  | inactive: -36.7% [at 102 µM]
8 | COCCOC(=O)c1c(NC(=O)CSc2cccc[n+]2[O-])sc(C(N)=O)c1C | active: 2.51 µM | 
9 | COc1ccc(/C=C/C(=O)NCc2ccccn2)cc1 |  | inactive: 4%
10 | Cc1cccc(N2CCN(S(=O)(=O)c3ccc(-c4coc(C)n4)cc3)CC2C)c1 (stereo not given) | active: 25.1 µM | 
11 | CCOc1ccc(CCNC(=O)COC(=O)COc2ccccc2C)cc1OCC |  | inactive: -24.4% [at 102 µM]
12 | COc1ccccc1CNC(=O)C1CCCN(C(=O)c2cnn(-c3ccc(F)cc3)c2-n2cccc2)C1 (stereo not given) | inconclusive: 4.47 µM [inhibitor, single point] | 
13 | Cc1ccc(C(=O)Nc2ccc(N3CCOCC3)cc2N2CCOCC2)cc1 |  | inactive: -28% [at 102 µM]
14 | CCn1cc(C(=O)OCC(=O)OC2CC(C)CCC2C(C)C)c(=O)c2ccc(C)nc21 (stereo not given) | inconclusive: 70.8 µM [inhibitor, partial curve, poor fit] | 
15 | Cc1cccc(-c2nc3c4ccccc4nc(N4CCN(c5ccccc5F)CC4)n3n2)c1 | inconclusive: 0.794 µM [inhibitor, partial curve, poor fit] | 
16 | CC(=O)Nc1nc(-c2ccc3c(c2)CC(C)N3C(=O)C2CC2)c(C)s1 (stereo not given) | active: 25.1 µM | 
17 | COc1ccc(-c2cnc(NCc3cc4c(cc3[N+](=O)[O-])OCO4)n2C)cc1 | active: 31.6 µM | 
18 | CCOC(=O)c1sc(NC(=S)NC(=O)C23CC4CC(CC(C4)C2)C3)cc1C | inconclusive: 25.1 µM [inhibitor, partial curve, poor fit] | 
19 | CC1CCC(NC(=O)CCS(=O)(=O)c2ccc3c(c2)CC(C)N3C(=O)C2CC2)CC1 (stereo not given) |  | inactive: -46.6% [at 102 µM]
20 | Cc1ccc(Cn2c(CNS(=O)(=O)c3cccc([N+](=O)[O-])c3)nc3cccnc32)cc1 |  | inactive: 39.9%
21 | O=C(O)C1Cc2ccccc2CN1S(=O)(=O)c1ccccc1 (stereo not given) | inconclusive: 39.8 µM [inhibitor, single point] | 
22 | COc1ccc(-c2cc(C)no2)cc1S(=O)(=O)Nc1c(C)cc(C)cc1C |  | inactive: -19.1%
23 | Cc1nn(-c2ccccc2)c(OC(=O)c2cccs2)c1S(=O)(=O)c1ccc([N+](=O)[O-])cc1 | inconclusive: 39.8 µM [inhibitor, single point] | 

Row | Structure (SMILES) | Potency | activity, negative = inhibition
24 | Cc1ccc(-c2nn(CC(=O)Nc3ccc4c(c3)nc3n4CCOC3)c(=O)c3ccccc23)cc1 | active: 79.4 µM | 
25 | O=C(NCc1ccco1)[C@@H]1CSC2c3ccccc3C(=O)N21 (stereo not given in full) |  | inactive: -6.09% [at 12.7 µM]
26 | CS(=O)(=O)O/N=C1\CCCCC1c1ccc([N+](=O)[O-])cc1[N+](=O)[O-] (stereo not given) | active: 39.8 µM | 
27 | C#CCNC(=O)C1=C[C@@H](c2ccc(Br)cc2)C[C@@H](OCCCCO)O1 |  | inconclusive: -98.5% [inhibitor]
28 | CCOC(=O)C1CCN(C(c2ccc(SC)cc2)c2c(O)cc(C)n(Cc3ccco3)c2=O)CC1 (stereo not given) | inconclusive: 39.8 µM [inhibitor, single point] | 
29 | Nc1cc(-c2cccc(Br)c2)nn1Cc1ccccc1 | inconclusive: 89.1 µM [inhibitor, single point] | 
30 | Cc1ccccc1-n1nc(CO)c(C(=O)NCc2cccnc2)n1 |  | inactive: 7.21%
31 | Cc1c(Cl)cccc1NC(=O)NN1CCN(C)CC1 |  | inactive: 4.42% [at 102 µM]
32 | COCCn1c(=O)c(-c2cn(C)c3ccccc23)nc2cnc(N3CCNCC3)nc21 |  | inactive: 9.73% [at 0.501 µM]
33 | O=C1NC(=O)C2(COC(c3cccnc3)OC2)S1 (stereo not given) | inconclusive: 89.1 µM [inhibitor, single point] | 
34 | Cn1c(SCC(=O)c2ccccc2)nnc1-c1cnccn1 | active: 20 µM | 
35 | COCc1[nH]nc2c1C(c1cc(OC)c(O)c(OC)c1)C(C#N)=C(N)O2 (stereo not given) | inconclusive: 50.1 µM [inhibitor, partial curve, poor fit] | 
36 | COc1ccc(OC)c(NC(=O)c2c(N3CCCC3=O)c3cc(OC)ccc3n2C)c1 | inconclusive: 6.31 µM [inhibitor, partial curve] | 
37 | Cc1sc2nc(C(C)C)nc(SCC(=O)N3CCN(C(=O)c4ccco4)CC3)c2c1C | inconclusive: 89.1 µM [inhibitor, single point] | 
38 | O=C(CC1COc2ccccc2O1)Nc1ccccn1 (stereo not given) | inconclusive: 1 µM [inhibitor, partial curve, poor fit] | 
39 | Cc1noc(C)c1C(=O)N1CCC[C@@]2(CCN(c3ccccn3)C2)C1 |  | inactive: -2.74% [at 12.7 µM]
40 | CCc1ccc(CNC(=O)CCC(=O)n2ncc3cc(C)ccc32)cc1 | inconclusive: 89.1 µM [inhibitor, single point] | 
41 | Cc1cccc(NC(=O)CCS(=O)(=O)c2cccc3nsnc23)c1C | inconclusive: 17.8 µM [inhibitor, partial curve, poor fit] and inconclusive: 22.4 µM [inhibitor, single point] | 
42 | COc1cccc(CN(C)CC(=O)NNC(=O)c2ccc(Cl)cc2)c1 | inconclusive: 4.47 µM [inhibitor, partial curve] | 
43 | O=C(/C=C/c1ccc(F)cc1)NC(=S)NNC(=O)[C@H]1C[C@@H]1c1ccccc1 | active: 35.5 µM | 
44 | CCOC(=O)C1CCN(S(=O)(=O)c2ccc3[nH]c4c(c3c2)CCCC4)CC1 |  | inconclusive: -59.8% [inhibitor]
45 | O=C(O)CCc1ccc(-c2ccccc2)n1CC(=O)O |  | inconclusive: -65.4% [inhibitor]
46 | CCN(CC)CCNC(=S)NC(=O)c1cn(-c2ccccc2)nc1-c1ccc(OC)cc1 | inconclusive: 44.7 µM [inhibitor, partial curve, poor fit] | 

Row | Structure (SMILES) | Potency | activity, negative = inhibition
47 | Cc1ccc(CN=c2c([N+](=O)[O-])nn(-c3ccc4c(c3)OCCO4)n2O)cc1 | inconclusive: 15.8 µM [inhibitor, partial curve, poor fit] | 
48 | O=C(C1CCCN(Cc2ccccc2)C1)N1CCCCC1 (stereo not given) | active: 12.6 µM | 
49 | COc1cc(C(c2c(O)cc(C)[nH]c2=O)c2c(O)cc(C)[nH]c2=O)ccc1O |  | inactive: -6.01% [at 102 µM]
50 | CCn1c(SCC#N)nc2c(c1=O)C1(CCCC1)Cc1ccccc1-2 |  | inactive: 27.1%
51 | CCN1CCN(C(=S)c2ccc(Br)cc2)CC1 |  | inactive: 10.5% [at 0.501 µM]
52 | CCOC(=O)CC1C(=O)NCCN1c1nc2c(C)cccn2c(=O)c1/C=C1\SC(=S)N(CC(C)C)C1=O (stereo not given) |  | inactive: -31.6% [at 102 µM]
53 | CN(C)c1cccc(NC(=O)NC2(C)CCS(=O)(=O)C2)c1 (stereo not given) | inconclusive: 89.1 µM [inhibitor, single point] | 
54 | O=C(c1ccc(Br)o1)N1CCN(c2ccc3nnc(-c4ccccc4)n3n2)CC1 | inconclusive: 35.5 µM [inhibitor, single point] | 
55 | CC1CN(C(=O)N2CCC(C(=O)NCc3cccs3)CC2)c2cc(Cl)ccc2O1 (stereo not given) | inconclusive: 25.1 µM [inhibitor, single point] | 
56 | Cc1ccccc1OCC(O)Cn1c(N2CCN(c3ccccc3)CC2)nc2c1c(=O)[nH]c(=O)n2C (stereo not given) | inconclusive: 89.1 µM [inhibitor, single point] | 
57 | Cc1ccc(C)c(NC(=O)C2CCCN(c3nc4ccccc4s3)C2)c1 (stereo not given) |  | inactive: 1.51%
58 | Cc1ccc(NC(=O)Cn2c(C)csc2=O)cc1 | inconclusive: 89.1 µM [inhibitor, partial curve, poor fit] | 
59 | CN(C)c1ccc(O)c2c1CC1CC3[C@@H](N(C)C)C(=O)C(C(N)=O)=C(O)[C@]3(O)C(=O)C1=C2O (stereo not given in full) | active: 10 µM | 
60 | O=C(N/N=C/c1ccc2c(c1)OCO2)c1cc(-c2ccncc2)nc2ccccc12 |  | inactive: 8.81%
61 | Nc1ccc2c(c1)C(=O)c1ccccc1C2=O | inconclusive: 44.7 µM [inhibitor, partial curve, poor fit] | 
62 | COc1ccc2c(c1)OC[C@H]1[C@H]2N2C(=O)c3cc(Br)ccc3NC(=O)[C@@]2(C)[C@H]1c1ccccc1 |  | inactive: 4.62% [at 2.33 µM]
63 | CN(C)CCCCOc1ccccc1F | active: 8.91 µM | 
64 | COc1ccc(-c2nc(C)c(C(C)=O)n2O)cc1[N+](=O)[O-] | active: 56.2 µM | 
65 | CC(C)N(C(=O)COC(=O)c1cccc(S(=O)(=O)N2CC3(C)CC2CC(C)(C)C3)c1)C(C)C (stereo not given) | inconclusive: 89.1 µM [inhibitor, partial curve, poor fit] | 
66 | Cc1ccc(CN(C(=O)c2c(F)cccc2F)C2CC(C)(C)NC(C)(C)C2)o1 | inconclusive: 89.1 µM [inhibitor, single point] | 
67 | CC(C)N1CCN(C(=O)c2cccc(Cl)c2)CC1 | active: 25.1 µM | 
68 | CC(=O)NC(c1cc(F)c2cccnc2c1O)C1CC1 (stereo not given) | inconclusive: 1.58 µM [inhibitor, single point] | inactive: 2% [at 0.501 µM]
69 | O=C(NC1CCCC1)c1ccc(CSc2nc3ccncc3n2Cc2cccc(F)c2)cc1 | inconclusive: 35.5 µM [inhibitor, partial curve, poor fit] | 
